{"source": "paper PMC9911399", "about": "“Two distinct binding modes provide the RNA-binding protein RbFox with extraordinary sequence specificity”", "binders": {"B1": {"name": "UUUGCUA (DNA:RNA)", "RNA": "GGGAGACCGGAAUUCAGAUUGUCCUUUGCUAUUAAAUCCCGUCGUAGCCACCA", "DNA 1": "CAATCTGAATTCCGGTCTCCC", "DNA 2": "TGGTGGCTACGACGGGATT"}, "B2": {"name": "UUGCAGU (DNA:RNA)", "RNA": "B1 RNA with U27G, G28C, C29A, U30G, A31U", "DNA 1": "CAATCTGAATTCCGGTCTCCC", "DNA 2": "TGGTGGCTACGACGGGATT"}, "B3": {"name": "UAUUGAU (DNA:RNA)", "RNA": "B1 RNA with U26A, G28U, C29G, U30A, A31U", "DNA 1": "CAATCTGAATTCCGGTCTCCC", "DNA 2": "TGGTGGCTACGACGGGATT"}, "B4": {"name": "CUAGUAC (DNA:RNA)", "RNA": "B1 RNA with U25C, U27A, C29U, U30A, A31C", "DNA 1": "CAATCTGAATTCCGGTCTCCC", "DNA 2": "TGGTGGCTACGACGGGATT"}, "B5": {"name": "AAUUUCU (DNA:RNA)", "RNA": "B1 RNA with U25A, U26A, G28U, C29U, U30C, A31U", "DNA 1": "CAATCTGAATTCCGGTCTCCC", "DNA 2": "TGGTGGCTACGACGGGATT"}, "B6": {"name": "UAGCCCA (DNA:RNA)", "RNA": "B1 RNA with U26A, U27G, G28C, U30C", "DNA 1": "CAATCTGAATTCCGGTCTCCC", "DNA 2": "TGGTGGCTACGACGGGATT"}, "B7": {"name": "AACCGUU (DNA:RNA)", "RNA": "B1 RNA with U25A, U26A, U27C, G28C, C29G, A31U", "DNA 1": "CAATCTGAATTCCGGTCTCCC", "DNA 2": "TGGTGGCTACGACGGGATT"}, "B8": {"name": "GGAGCAA (DNA:RNA)", "RNA": "B1 RNA with U25G, U26G, U27A, U30A", "DNA 1": "CAATCTGAATTCCGGTCTCCC", "DNA 2": "TGGTGGCTACGACGGGATT"}, "B9": {"name": "CAAUCCA (DNA:RNA)", "RNA": "B1 RNA with U25C, U26A, U27A, G28U, U30C", "DNA 1": "CAATCTGAATTCCGGTCTCCC", "DNA 2": "TGGTGGCTACGACGGGATT"}, "B10": {"name": "GGGGAUA (DNA:RNA)", "RNA": "B1 RNA with U25G, U26G, U27G, C29A", "DNA 1": "CAATCTGAATTCCGGTCTCCC", "DNA 2": "TGGTGGCTACGACGGGATT"}, "B11": {"name": "CGACGAC (DNA:RNA)", "RNA": "GGGAGACCGGAAUUCAGAUUGUCCCGACGACUUAAAUCCCGUCGUAGCCACCA", "DNA 1": "CAATCTGAATTCCGGTCTCCC", "DNA 2": "TGGTGGCTACGACGGGATT"}, "B12": {"name": "AAAGUCC (DNA:RNA)", "RNA": "B11 RNA with C25A, G26A, C28G, G29U, A30C", "DNA 1": "CAATCTGAATTCCGGTCTCCC", "DNA 2": "TGGTGGCTACGACGGGATT"}, "B13": {"name": "UGCAAUC (DNA:RNA)", "RNA": "B11 RNA with C25U, A27C, C28A, G29A, A30U", "DNA 1": "CAATCTGAATTCCGGTCTCCC", "DNA 2": "TGGTGGCTACGACGGGATT"}, "B14": {"name": "UGUUUAA (DNA:RNA)", "RNA": "B1 RNA with U26G, G28U, C29U, U30A", "DNA 1": "CAATCTGAATTCCGGTCTCCC", "DNA 2": "TGGTGGCTACGACGGGATT"}, "B15": {"name": "AAUUAGG (DNA:RNA)", "RNA": "B1 RNA with U25A, U26A, G28U, C29A, U30G, A31G", "DNA 1": "CAATCTGAATTCCGGTCTCCC", "DNA 2": "TGGTGGCTACGACGGGATT"}, "B16": {"name": "GCCGCGA (DNA:RNA)", "RNA": "B1 RNA with U25G, U26C, U27C, U30G", "DNA 1": "CAATCTGAATTCCGGTCTCCC", "DNA 2": "TGGTGGCTACGACGGGATT"}, "B17": {"name": "CAUAAUG (DNA:RNA)", "RNA": "B1 RNA with U25C, U26A, G28A, C29A, A31G", "DNA 1": "CAATCTGAATTCCGGTCTCCC", "DNA 2": "TGGTGGCTACGACGGGATT"}, "B18": {"name": "AGAUUCA (DNA:RNA)", "RNA": "B11 RNA with C25A, C28U, G29U, A30C, C31A", "DNA 1": "CAATCTGAATTCCGGTCTCCC", "DNA 2": "TGGTGGCTACGACGGGATT"}, "B19": {"name": "GUGGCGU (DNA:RNA)", "RNA": "B1 RNA with U25G, U27G, U30G, A31U", "DNA 1": "CAATCTGAATTCCGGTCTCCC", "DNA 2": "TGGTGGCTACGACGGGATT"}, "B20": {"name": "GCGCACA (DNA:RNA)", "RNA": "B11 RNA with C25G, G26C, A27G, G29A, A30C, C31A", "DNA 1": "CAATCTGAATTCCGGTCTCCC", "DNA 2": "TGGTGGCTACGACGGGATT"}, "B21": {"name": "GAGGGGA (DNA:RNA)", "RNA": "B1 RNA with U25G, U26A, U27G, C29G, U30G", "DNA 1": "CAATCTGAATTCCGGTCTCCC", "DNA 2": "TGGTGGCTACGACGGGATT"}, "B22": {"name": "UUUGUUA (DNA:RNA)", "RNA": "B1 RNA with C29U", "DNA 1": "CAATCTGAATTCCGGTCTCCC", "DNA 2": "TGGTGGCTACGACGGGATT"}, "B23": {"name": "UAAGCAA (DNA:RNA)", "RNA": "B1 RNA with U26A, U27A, U30A", "DNA 1": "CAATCTGAATTCCGGTCTCCC", "DNA 2": "TGGTGGCTACGACGGGATT"}, "B24": {"name": "GAGACCU (DNA:RNA)", "RNA": "B1 RNA with U25G, U26A, U27G, G28A, U30C, A31U", "DNA 1": "CAATCTGAATTCCGGTCTCCC", "DNA 2": "TGGTGGCTACGACGGGATT"}, "B25": {"name": "UGAUAAU (DNA:RNA)", "RNA": "B11 RNA with C25U, C28U, G29A, C31U", "DNA 1": "CAATCTGAATTCCGGTCTCCC", "DNA 2": "TGGTGGCTACGACGGGATT"}, "B26": {"name": "CGAUCAU (DNA:RNA)", "RNA": "B11 RNA with C28U, G29C, C31U", "DNA 1": "CAATCTGAATTCCGGTCTCCC", "DNA 2": "TGGTGGCTACGACGGGATT"}, "B27": {"name": "AACUCGC (DNA:RNA)", "RNA": "B11 RNA with C25A, G26A, A27C, C28U, G29C, A30G", "DNA 1": "CAATCTGAATTCCGGTCTCCC", "DNA 2": "TGGTGGCTACGACGGGATT"}, "B28": {"name": "CCUAGGU (DNA:RNA)", "RNA": "B11 RNA with G26C, A27U, C28A, A30G, C31U", "DNA 1": "CAATCTGAATTCCGGTCTCCC", "DNA 2": "TGGTGGCTACGACGGGATT"}, "B29": {"name": "GCCGAUA (DNA:RNA)", "RNA": "B1 RNA with U25G, U26C, U27C, C29A", "DNA 1": "CAATCTGAATTCCGGTCTCCC", "DNA 2": "TGGTGGCTACGACGGGATT"}, "B30": {"name": "UCUGCCG (DNA:RNA)", "RNA": "B1 RNA with U26C, U30C, A31G", "DNA 1": "CAATCTGAATTCCGGTCTCCC", "DNA 2": "TGGTGGCTACGACGGGATT"}, "B31": {"name": "GUGUAUG (DNA:RNA)", "RNA": "B1 RNA with U25G, U27G, G28U, C29A, A31G", "DNA 1": "CAATCTGAATTCCGGTCTCCC", "DNA 2": "TGGTGGCTACGACGGGATT"}}, "note": "Changes are numbered by the printed parent chain; changes in the protein carry UniProt numbers. Some of the results follow.", "data": [{"target": "T1, RBFOX1 RRM (Homo sapiens, UniProt Q9NWB1 109-208)", "T1 sequence": "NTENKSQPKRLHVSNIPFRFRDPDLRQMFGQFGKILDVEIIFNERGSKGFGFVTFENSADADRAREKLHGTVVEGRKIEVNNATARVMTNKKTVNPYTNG", "assay": "EMSA; HiTS-Eq, 1 nM pool, 10 min; buffer printed only for the single-RNA assays: 10 mM Tris pH 7.5, 150 mM NaCl, 3.4 mM EDTA, 0.001% NP-40, 30 C", "conditions": "tags: His6 N-terminal (pET28a); label: 5' 32P", "method_in_brief": "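A pool of RNA with 7 randomized nucleotides, 5′-radiolabelled and with DNA-annealed flanks, was equilibrated at 1 nM for 10 min in 50 µL with purified RbFox RRM, wild type or mutant, across increasing protein concentrations. Free RNA was separated by 8% native PAGE, excised, reverse-transcribed, barcoded by PCR and sequenced. Relative association constants were obtained from read-count changes of each RNA species versus the control reaction and normalised to the cognate motif.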", "values": [{"binder": "B1", "binding signal": "0.0167 KA relative to UGCAUGU"}, {"binder": "B2", "binding signal": "0.0159 KA relative to UGCAUGU"}, {"binder": "B3", "binding signal": "0.0185 KA relative to UGCAUGU"}, {"binder": "B4", "binding signal": "0.0032 KA relative to UGCAUGU"}, {"binder": "B5", "binding signal": "0.00573 KA relative to UGCAUGU"}, {"binder": "B6", "binding signal": "0.00357 KA relative to UGCAUGU"}, {"binder": "B7", "binding signal": "0.0018 KA relative to UGCAUGU"}, {"binder": "B8", "binding signal": "0.0102 KA relative to UGCAUGU"}, {"binder": "B9", "binding signal": "0.000796 KA relative to UGCAUGU"}, {"binder": "B10", "binding signal": "0.0268 KA relative to UGCAUGU"}, {"binder": "B11", "binding signal": "0.00583 KA relative to UGCAUGU"}, {"binder": "B12", "binding signal": "0.00674 KA relative to UGCAUGU"}, {"binder": "B13", "binding signal": "0.00958 KA relative to UGCAUGU"}, {"binder": "B14", "binding signal": "0.0158 KA relative to UGCAUGU"}, {"binder": "B15", "binding signal": "0.00759 KA relative to UGCAUGU"}, {"binder": "B16", "binding signal": "0.0198 KA relative to UGCAUGU"}, {"binder": "B17", "binding signal": "0.00556 KA relative to UGCAUGU"}, {"binder": "B18", "binding signal": "0.00597 KA relative to UGCAUGU"}, {"binder": "B19", "binding signal": "0.0228 KA relative to UGCAUGU"}, {"binder": "B20", "binding signal": "0.0105 KA relative to UGCAUGU"}, {"binder": "B21", "binding signal": "0.0145 KA relative to UGCAUGU"}, {"binder": "B22", "binding signal": "0.0162 KA relative to UGCAUGU"}, {"binder": "B23", "binding signal": "0.00952 KA relative to UGCAUGU"}, {"binder": "B24", "binding signal": "0.00471 KA relative to UGCAUGU"}, {"binder": "B25", "binding signal": "0.0068 KA relative to UGCAUGU"}, {"binder": "B26", "binding signal": "0.0016 KA relative to UGCAUGU"}, {"binder": "B27", "binding signal": "0.00648 KA relative to UGCAUGU"}, {"binder": "B28", "binding signal": "0.0101 KA relative to UGCAUGU"}, {"binder": "B29", "binding signal": "0.00929 KA relative to UGCAUGU"}, {"binder": "B30", "binding signal": "0.0168 KA relative to UGCAUGU"}, {"binder": "B31", "binding signal": "0.023 KA relative to UGCAUGU"}]}]}
